From the supplement of paper PMC8728848
The list shows a part of the results.

Assays:
Assay in all cases: glycan array binding signal (z-score within array); higher = stronger binding
Conditions in all cases: glycan notation: IUPAC condensed, linker removed
[1] = target: Fuc(a1-2)[GalNAc(a1-3)]Gal(b1-4)GlcNAc(b1-3)GalNAc
In short: (§1)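 From the Consortium for Functional Glycomics database, 3228 arrays were curated, keeping only those whose protein sequence was available. Binding is given as a within-array Z-score averaged across arrays sharing a protein sequence and across linkers. Negative Z-scores can be read as non-binding.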

[2] = target: Fuc(a1-2)[GalNAc(a1-3)]Gal(b1-4)[Fuc(a1-3)]GlcNAc
In short: as §1

[3] = target: Fuc(a1-2)[GalNAc(a1-3)]Gal(b1-4)[Fuc(a1-3)]GlcNAc(b1-3)GalNAc
In short: as §1

[4] = target: Fuc(a1-2)[GalNAc(a1-4)]Gal(b1-4)GlcNAc
In short: as §1

[5] = target: Fuc(a1-2)[GalNAc(b1-3)]Gal
In short: as §1

[6] = target: Fuc(a1-3)GlcNAc
In short: as §1

[7] = target: Fuc(a1-3)[Gal(b1-4)]Glc6S
In short: as §1

[8] = target: Fuc(a1-3)[Gal(b1-4)]GlcNAc
In short: as §1

[9] = target: Fuc(a1-3)[Gal(b1-4)]GlcNAc(b1-2)Man(a1-3)[Fuc(a1-3)[Gal(b1-4)]GlcNAc(b1-2)Man(a1-6)]Man(b1-4)GlcNAc(b1-4)GlcNAc
In short: as §1

[10] = target: Fuc(a1-3)[Gal(b1-4)]GlcNAc(b1-2)Man(a1-3)[Fuc(a1-3)[Gal(b1-4)]GlcNAc(b1-2)Man(a1-6)]Man(b1-4)GlcNAc(b1-4)[Fuc(a1-6)]GlcNAc
In short: as §1

[11] = target: Fuc(a1-3)[Gal(b1-4)]GlcNAc(b1-3)Gal(b1-3)[Fuc(a1-4)]GlcNAc
In short: as §1

[12] = target: Fuc(a1-3)[Gal(b1-4)]GlcNAc(b1-3)GalNAc
In short: as §1

[13] = target: Fuc(a1-3)[Gal(b1-4)]GlcNAc(b1-4)Gal(b1-4)[Fuc(a1-3)]GlcNAc
In short: as §1

[14] = target: Fuc(a1-3)[Gal(b1-4)]GlcNAc(b1-4)Gal(b1-4)[Fuc(a1-3)]GlcNAc(b1-4)Gal(b1-4)[Fuc(a1-3)]GlcNAc
In short: as §1

[15] = target: Fuc(a1-3)[Gal(b1-4)]GlcNAc(b1-6)[Gal(b1-3)GlcNAc(b1-3)]Gal(b1-4)Glc
In short: as §1

[16] = target: Fuc(a1-3)[Gal(b1-4)]GlcNAc6S
In short: as §1

[17] = target: Fuc(a1-3)[Gal3S(b1-4)]GlcNAc
In short: as §1

[18] = target: Fuc(a1-3)[Gal3S(b1-4)]GlcNAc6S
In short: as §1

[19] = target: Fuc(a1-3)[GalNAc(b1-4)]GlcNAc
In short: as §1

[20] = target: Fuc(a1-4)GlcNAc
In short: as §1

[21] = target: Fuc(b1-3)GlcNAc
In short: as §1

[22] = target: Gal(a1-2)Gal
In short: as §1

[23] = target: Gal(a1-3)Gal
In short: as §1

[24] = target: Gal(a1-3)Gal(b1-3)GlcNAc
In short: as §1

[25] = target: Gal(a1-3)Gal(b1-3)GlcNAc(b1-2)Man(a1-3)[Gal(a1-3)Gal(b1-3)GlcNAc(b1-2)Man(a1-6)]Man(b1-4)GlcNAc(b1-4)GlcNAc
In short: as §1

[26] = target: Gal(a1-3)Gal(b1-3)GlcNAc(b1-3)GalNAc
In short: as §1

[27] = target: Gal(a1-3)Gal(b1-3)[Fuc(a1-4)]GlcNAc(b1-2)Man(a1-3)[Gal(a1-3)Gal(b1-3)[Fuc(a1-4)]GlcNAc(b1-2)Man(a1-6)]Man(b1-4)GlcNAc(b1-4)GlcNAc
In short: as §1

[28] = target: Gal(a1-3)Gal(b1-4)Glc
In short: as §1

[29] = target: Gal(a1-3)Gal(b1-4)GlcNAc
In short: as §1

[30] = target: Gal(a1-3)Gal(b1-4)GlcNAc(b1-3)GalNAc
In short: as §1

[31] = target: Gal(a1-3)Gal(b1-4)[Fuc(a1-3)]GlcNAc
In short: as §1

[32] = target: Gal(a1-3)Gal(b1-4)[Fuc(a1-3)]GlcNAc(b1-2)Man(a1-3)[Gal(a1-3)Gal(b1-4)[Fuc(a1-3)]GlcNAc(b1-2)Man(a1-6)]Man(b1-4)GlcNAc(b1-4)GlcNAc
In short: as §1

[33] = target: Gal(a1-3)GalNAc
In short: as §1

[34] = target: Gal(a1-3)[Gal(a1-4)]Gal(b1-4)GlcNAc
In short: as §1

[35] = target: Gal(a1-4)Gal(b1-3)GlcNAc(b1-2)Man(a1-3)[Gal(a1-4)Gal(b1-3)GlcNAc(b1-2)Man(a1-6)]Man(b1-4)GlcNAc(b1-4)GlcNAc
In short: as §1

[36] = target: Gal(a1-4)Gal(b1-4)Glc
In short: as §1

[37] = target: Gal(a1-4)Gal(b1-4)GlcNAc
In short: as §1

[38] = target: Gal(a1-4)Gal(b1-4)GlcNAc(b1-2)Man(a1-3)[Gal(a1-4)Gal(b1-4)GlcNAc(b1-2)Man(a1-6)]Man(b1-4)GlcNAc(b1-4)GlcNAc
In short: as §1

[39] = target: Gal(a1-4)Gal(b1-4)GlcNAc(b1-3)Gal(b1-4)Glc
In short: as §1

[40] = target: Gal(a1-4)GlcNAc
In short: as §1

[41] = target: Gal(a1-6)Glc
In short: as §1

[42] = target: Gal(b1-2)Gal
In short: as §1

[43] = target: Gal(b1-3)Gal
In short: as §1

[44] = target: Gal(b1-3)Gal(b1-4)GlcNAc
In short: as §1

[45] = target: Gal(b1-3)Gal(b1-4)GlcNAc(b1-2)Man(a1-3)[Gal(b1-3)Gal(b1-4)GlcNAc(b1-2)Man(a1-6)]Man(b1-4)GlcNAc(b1-4)GlcNAc
In short: as §1

[46] = target: Gal(b1-3)GalNAc
In short: as §1

[47] = target: Gal(b1-3)GalNAc(a1-3)[Fuc(a1-2)]Gal(b1-4)Glc
In short: as §1

[48] = target: Gal(b1-3)GalNAc(a1-3)[Fuc(a1-2)]Gal(b1-4)GlcNAc
In short: as §1

[49] = target: Gal(b1-3)GalNAc(b1-3)Gal(a1-4)Gal(b1-4)Glc
In short: as §1

[50] = target: Gal(b1-3)GalNAc(b1-4)Gal(b1-4)Glc
In short: as §1

[51] = target: Gal(b1-3)GalNAc(b1-4)[Neu5Ac(a2-3)]Gal(b1-4)Glc
In short: as §1

[52] = target: Gal(b1-3)GlcNAc
In short: as §1

[53] = target: Gal(b1-3)GlcNAc(a1-6)Gal(b1-4)GlcNAc
In short: as §1

[54] = target: Gal(b1-3)GlcNAc(b1-2)Man(a1-3)[Gal(b1-3)GlcNAc(b1-2)Man(a1-6)]Man(b1-4)GlcNAc(b1-4)GlcNAc
In short: as §1

[55] = target: Gal(b1-3)GlcNAc(b1-2)Man(a1-3)[Gal(b1-3)GlcNAc(b1-2)Man(a1-6)]Man(b1-4)GlcNAc(b1-4)[Fuc(a1-6)]GlcNAc
In short: as §1

[56] = target: Gal(b1-3)GlcNAc(b1-2)[Gal(b1-3)GlcNAc(b1-6)]Man(a1-6)[Gal(b1-3)GlcNAc(b1-2)Man(a1-3)]Man(b1-4)GlcNAc(b1-4)GlcNAc
In short: as §1

[57] = target: Gal(b1-3)GlcNAc(b1-3)Gal(b1-3)GlcNAc
In short: as §1

[58] = target: Gal(b1-3)GlcNAc(b1-3)Gal(b1-4)Glc
In short: as §1

[59] = target: Gal(b1-3)GlcNAc(b1-3)Gal(b1-4)GlcNAc
In short: as §1

[60] = target: Gal(b1-3)GlcNAc(b1-3)Gal(b1-4)GlcNAc(b1-6)[Gal(b1-3)GlcNAc(b1-3)]Gal(b1-4)Glc
In short: as §1

B1: Gal 3 (Canis lupus) (protein)
chain: MADSFSLNDALSGSGNPNPQGWPGPWGNQPAGAGGYPGASYPGAYPGQAPPGGYPGQAPPGGYPGQAPPGGYPGQAPPGGYPGQAPPGGYPGQAPPGTYPGPTAPAYPGPTAPGTQPGQPSGPGAYPPPGQPSAPGAYPAAGPFGIPAGPLTVPYDLPLPGGVKPRMLITILGTVRPSANRLALDFKRGNDVAFHFNPRFNEDNKRVIVCNTKLDNIWGKEERQAAFPFESGKPFKIQVLVESDHFKVAVNDAHLLQYNHRMKNLPEISKLGISGDIDLTSASYAMI
- glycan array binding signal (z-score) [1]: -0.128
- glycan array binding signal (z-score) [2]: -0.253
- glycan array binding signal (z-score) [3]: -0.144
- glycan array binding signal (z-score) [4]: -0.257
- glycan array binding signal (z-score) [5]: -0.272
- glycan array binding signal (z-score) [6]: -0.247
- glycan array binding signal (z-score) [7]: -0.242
- glycan array binding signal (z-score) [8]: -0.26
- glycan array binding signal (z-score) [9]: -0.259
- glycan array binding signal (z-score) [10]: -0.155
- glycan array binding signal (z-score) [11]: -0.263
- glycan array binding signal (z-score) [12]: -0.246
- glycan array binding signal (z-score) [13]: -0.254
- glycan array binding signal (z-score) [14]: -0.249
- glycan array binding signal (z-score) [15]: -0.225
- glycan array binding signal (z-score) [16]: -0.161
- glycan array binding signal (z-score) [17]: -0.24
- glycan array binding signal (z-score) [18]: -0.103
- glycan array binding signal (z-score) [19]: -0.261
- glycan array binding signal (z-score) [20]: -0.263
- glycan array binding signal (z-score) [21]: -0.256
- glycan array binding signal (z-score) [22]: -0.249
- glycan array binding signal (z-score) [23]: -0.26
- glycan array binding signal (z-score) [24]: -0.162
- glycan array binding signal (z-score) [25]: -0.192
- glycan array binding signal (z-score) [26]: -0.143
- glycan array binding signal (z-score) [27]: -0.226
- glycan array binding signal (z-score) [28]: -0.239
- glycan array binding signal (z-score) [29]: -0.063
- glycan array binding signal (z-score) [30]: -0.032
- glycan array binding signal (z-score) [31]: -0.257
- glycan array binding signal (z-score) [32]: -0.227
- glycan array binding signal (z-score) [33]: -0.27
- glycan array binding signal (z-score) [34]: -0.259
- glycan array binding signal (z-score) [35]: -0.234
- glycan array binding signal (z-score) [36]: -0.264
- glycan array binding signal (z-score) [37]: -0.256
- glycan array binding signal (z-score) [38]: -0.192
- glycan array binding signal (z-score) [39]: 0.131
- glycan array binding signal (z-score) [40]: -0.277
- glycan array binding signal (z-score) [41]: -0.26
- glycan array binding signal (z-score) [42]: -0.259
- glycan array binding signal (z-score) [43]: -0.246
- glycan array binding signal (z-score) [44]: -0.204
- glycan array binding signal (z-score) [45]: 1.38
- glycan array binding signal (z-score) [46]: -0.265
- glycan array binding signal (z-score) [47]: -0.09
- glycan array binding signal (z-score) [48]: 1.23
- glycan array binding signal (z-score) [49]: -0.248
- glycan array binding signal (z-score) [50]: -0.263
- glycan array binding signal (z-score) [51]: -0.258
- glycan array binding signal (z-score) [52]: -0.231
- glycan array binding signal (z-score) [53]: -0.261
- glycan array binding signal (z-score) [54]: -0.146
- glycan array binding signal (z-score) [55]: -0.196
- glycan array binding signal (z-score) [56]: -0.153
- glycan array binding signal (z-score) [57]: 0.142
- glycan array binding signal (z-score) [58]: -0.074
- glycan array binding signal (z-score) [59]: 0.427
- glycan array binding signal (z-score) [60]: 0.348
